From article PMC12136788
The list shows a part of the results.

B1: chr4:17843545:17843646:+|3pUTR|ENSG00000109805|msi1|total|mutant (ssRNA)
RNA: GGGAGUUCUACAGUCCGACGAUCCUGUGCGCUUCCACGUUACUUUGGCCUGUAUUAAAGCAGCCGAGCAGCAUCAGUUAUUACCGUCCAGAAAAAGUGUGCAUCAGUCAGUCACACAGAUUUAUCACAAUCUGAGGUGGGCCUCAACAGAGGAUUGAGCAUCA
B2: chr9:130136078:130136182:+|3pUTR|ENSG00000148358|msi1_unk|FALSE|overlapping (ssRNA)
RNA: GGGAGUUCUACAGUCCGACGAUCAGUCCAAGCAAAUCAUCCCCAUUAAAAAGCUUUUCCUGUAGGCUAGUAGGAUUUCUAAAUAGAUGAAUUCAACAGACUUGGUCCCCAUAGUCCAAGAGUAUGUAUGUGAAGAAAGUGAGCCAACAGAGGAUUGAGCAUCA
B3: chr1:61462620:61462721:+|3pUTR|ENSG00000162599|unk|FALSE|unique (ssRNA)
RNA: GGGAGUUCUACAGUCCGACGAUCCUGUGGGCGUCCAUUCUUAUUCAACUAAAUCUCCACAGGUUUUUUGAGCUGGUGUGGAUUAGUUUAACUCUUGUAUUCAACCAUUAGUGCUACCACCUUCUCACAUUACAAUACAAUUACCAACAGAGGAUUGAGCAUCA
B4: ENSG00000070961:be:win_5201|3pUTR|ENSG00000070961|bound_else_gene|NA|bound_elsewhere_windowed (ssRNA)
RNA: GGGAGUUCUACAGUCCGACGAUCUUUAGAUGCAAUAAUUAACCAUAUGCUAGAAUGCCCACCUCUAAGCCAAUUGGAUUCUUUAGCUCUCUUUUUCUUUCCUUCAUCUACCUUCUUCUCUUUUUUGCCUCUGUCUUUACCCUUCAACAGAGGAUUGAGCAUCA
B5: chr13:49308649:49310813:-|three_prime_utr|ENSG00000102547|control|control|control (ssRNA)
RNA: GGGAGUUCUACAGUCCGACGAUCGUCAUCAUUCUUGGGAAGACUUUGGAGGUGCCUAUUUUUUCUGCUGUAAUUGUUCUGGGUAGAUGGAGUAUAAACAUUUGAAUGGAAAAAAAUUAACCUAGAAUAAUAUAUUCAUUUUAGCAACAGAGGAUUGAGCAUCA
B6: chr15:38352922:38353023:+|3pUTR|ENSG00000166068|msi1|FALSE|unique (ssRNA)
RNA: GGGAGUUCUACAGUCCGACGAUCUACAUAUAAAUUUAUUUCUUUUGCAGAGCAUUAUAUUACUGGAUGUUUAAUUUACAAAAUAGUUGGGUAAAUGUUCCAACAAACUUUAAAGUACCUUGAAGUCAAAUUGUCUGUUUUUGUCAACAGAGGAUUGAGCAUCA
B7: chr1:203741488:203741589:+|3pUTR|ENSG00000058668|msi1|FALSE|unique (ssRNA)
RNA: GGGAGUUCUACAGUCCGACGAUCGCCAGUUCAUGUCCCUGACUCUCACCUCCCAUUAGAUAAAUGAAGCCCACCCCCCUUUCUAGAGUGAUGAGAGUCAAGAAGAGGGGAUGUAUGAACGGCCAAAUUCCCAUGUGAGAGGAACAACAGAGGAUUGAGCAUCA
B8: chr1:228494639:228494729:+|3pUTR|ENSG00000168159|msi1_unk|FALSE|overlapping (ssRNA)
RNA: GGGAGUUCUACAGUCCGACGAUCGCCAUCGUGUCUCAUCUUGCUGUUAUCUCUAGCUCUUUCCCUCCUCCCAUUUCCUUUAGUAGUUGAAUUUUGCAAAGCUUGUAGCAGUAGCUCAGUUGCCUGCAGCAUCCUUGUGUGUAGCAACAGAGGAUUGAGCAUCA
B9: chr5:154417748:154417849:+|3pUTR|ENSG00000164574|msi1|FALSE|unique (ssRNA)
RNA: GGGAGUUCUACAGUCCGACGAUCCAGCACCAGCUUUACAGGGCAGUGUUUCAGAUGGCCCUGAGCCCACGGAAAAGGCCAGGUAGACCUCCAAACUAGAAAUGCUGGCUGAUUUGCCCUGAUCCAUGCUUCCAUUUCCCUGUCCAACAGAGGAUUGAGCAUCA
B10: chr20:3963869:3963970:-|CDS|ENSG00000101236|unk|total|mutant (ssRNA)
RNA: GGGAGUUCUACAGUCCGACGAUCAAUCUGCCUCUCAACAUAUAUAUUGUGGUUUUUGGUACUGCUAUAUUUGUCUUCAUCCUCCGUUUACUCUUCUGUUGCUACUUGAUCCGGUAACCAAUUUUCAUUCUAUGUUACUUCAAACAACAGAGGAUUGAGCAUCA
B11: chr4:113336597:113336699:+|CDS|ENSG00000145362|unk|total|mutant (ssRNA)
RNA: GGGAGUUCUACAGUCCGACGAUCACCUAUGCACAGUGAGCUGGUUAAGAAGAUCCCCGGCAACAAAGCUACCUUCAGCCCUACCGUCACUUUGGAACCCCGAAGAAGAAAAUUCCACAAACCAAUUACCAUGACCAUUCCUGUCAACAGAGGAUUGAGCAUCA
B12: chrX:41141081:41141111:+|CDS|ENSG00000124486|msi1_unk|total|mutant (ssRNA)
RNA: GGGAGUUCUACAGUCCGACGAUCCACUCUUCAUACAGUGAAAAAGUACUUUCUUCCAAUAACCGAAAUGGUUCCACAGUUUUCCGAAAACUUAACUGAUGAAGAACUGAAAAAAGAAGCAAAGAAUGAAGCCAAAAAUGAUGCCAACAGAGGAUUGAGCAUCA
B13: ENSG00000107863:be:win_5251|CDS|ENSG00000107863|bound_else_gene|NA|bound_elsewhere_windowed (ssRNA)
RNA: GGGAGUUCUACAGUCCGACGAUCAGAGGCGAAUCCGAAAAACAGGAACCCACAUGGAAAACGAAAAUAGCAGAUCGGUUAAAACUGAGACCCAGAGCCCCUGCGGAUGACAUGUUUGGAGUAGGGAAUCACAAAGUGAAUGCCCAACAGAGGAUUGAGCAUCA
B14: ENSG00000178764:stop:overlap|stop_codon|ENSG00000178764|stop_codon|NA|stop_codon (ssRNA)
RNA: GGGAGUUCUACAGUCCGACGAUCGUGUGUCGGAACUGGCUGAAUCAGACUCCGACUGCGUCCCUGCAGAGGCUGGCCAGGCCUAGACAGGGAAGUCUGUUAGAACUGCUGUGCUGAUCAACGGGACGCUCCGUCUUUGAAGAACAACAGAGGAUUGAGCAUCA
B15: chr12:103267852:103268962:-|three_prime_utr|ENSG00000179088|control|control|control (ssRNA)
RNA: GGGAGUUCUACAGUCCGACGAUCUCCUGCACCUGCCUUCUUGAAAGAAAACAAGACAUCAGAUACUUAUUCAAAUAAUGGAAUAGCUGAUCAACUGGGUCUCCACACAAAAGAGAGUUAUCCAUGAUAAAAGAACAACUUUUUCAACAGAGGAUUGAGCAUCA
B16: chr7:94537565:94537673:+|CDS|ENSG00000127995|unk|total|mutant (ssRNA)
RNA: GGGAGUUCUACAGUCCGACGAUCGAAGCCUGCCGAUGGGUCCUGUUGUCAACCUCGGCCUCCUGUUACUCUCAUACAGAAGCCCGCUGCUUGUUUUUUCACUUUAUCUAUUAUCGGAUAUUUAAUUUUUUACAUAAUUCAUCGCAACAGAGGAUUGAGCAUCA
B17: chr2:99394746:99394872:+|CDS|ENSG00000158417|unk|FALSE|unique (ssRNA)
RNA: GGGAGUUCUACAGUCCGACGAUCGAUGUGAGAAUUGAACGAGAUGCACAAGAAAUGGCUGAUAGUUUAGGAGUUAGAAUUUUUAGUGCAGAAAUUAUUUAUCAUUUAUUUGAUGCCUUUACAAAAUAUAGACAAGACUACAAGCAACAGAGGAUUGAGCAUCA
B18: chr2:27243795:27243896:+|3pUTR|ENSG00000084774|unk|total|mutant (ssRNA)
RNA: GGGAGUUCUACAGUCCGACGAUCACUUAAUAAACAGCCGAGCUGUCCCUUGAUGCUGAGUGCCGCCGAACAGAGCUUUCUUUCCGAAAAUUGAGCAGAUUCCCAAAUUAUAAGAGCAGCCUCACCAGGCAGGGCUCUGGCCCGCAACAGAGGAUUGAGCAUCA
B19: chr2:207821287:207828318:-|three_prime_utr|ENSG00000178385|control|control|control (ssRNA)
RNA: GGGAGUUCUACAGUCCGACGAUCACCCGAAGGCCAGGGAUUCACCAAUCAACAAUCCAUCAGCCCCAGAGCGGCCUCCUAACUAGCCAGUUAGACCCCUUUGGAAGAAGAGUAUGUAUCCUCUUCAACUAGAUAUAGAUAUAUCAACAGAGGAUUGAGCAUCA
B20: chr3:62294137:62294238:+|3pUTR|ENSG00000144724|msi1|FALSE|unique (ssRNA)
RNA: GGGAGUUCUACAGUCCGACGAUCUGAGACCCUUUAGUUAUUCUCCAUUAAUGCUUCUUAGUUUGUAAUACCAUACCUCACAGUAGGUAGAAGAAUGAAAACUUCUGCAGGUGUGUAAUUUUGAAACUAGUCCUCUAAAAAUUCCAACAGAGGAUUGAGCAUCA
B21: ENSG00000070961:be:win_3701|3pUTR|ENSG00000070961|bound_else_gene|NA|bound_elsewhere_windowed (ssRNA)
RNA: GGGAGUUCUACAGUCCGACGAUCAGAAACAAAUUGAAACUGGGUCUUUUCACAUAUUGUGAUGGACAAGCUAGUAUUCUUGUCUUUGGACUUCAACAGAAGACACACUUGUACGAAUGUAGAUUUAUUUUUUUAAAAAAAAAACAACAGAGGAUUGAGCAUCA
B22: chr1:9729969:9730061:-|3pUTR|ENSG00000171603|msi1_unk|FALSE|overlapping (ssRNA)
RNA: GGGAGUUCUACAGUCCGACGAUCGUUUUUAUUUUUUCCAAACUAGUGCAUGUAUAAAUAAUGGCAGGAUGGGGGGUACUGUGUAGAUGAUUAACUGACUUUUUAAUAUUUUGUAAAUAAAUCGGAUUCCUUGUGUCCUUUGUGCAACAGAGGAUUGAGCAUCA

Each binder was assayed against T1, UNK ZnF1-6 (called full-length) (human, UniProt Q9C0B0 30-357) (assay: nsRBNS (natural sequence RNA bind-n-seq); RBNS binding buffer (assumed for nsRBNS): 25 mM Tris pH 7.5, 150 mM KCl, 3 mM MgCl2, 0.01% Triton X-100, 500 ug/ml BSA, 20 U/ml SUPERase-In, 4 C; UNK is unkempt and MSI1 is Musashi-1; names of the RNAs are library labels; protein concentration not given here; high values mean tight binding).
T1 sequence: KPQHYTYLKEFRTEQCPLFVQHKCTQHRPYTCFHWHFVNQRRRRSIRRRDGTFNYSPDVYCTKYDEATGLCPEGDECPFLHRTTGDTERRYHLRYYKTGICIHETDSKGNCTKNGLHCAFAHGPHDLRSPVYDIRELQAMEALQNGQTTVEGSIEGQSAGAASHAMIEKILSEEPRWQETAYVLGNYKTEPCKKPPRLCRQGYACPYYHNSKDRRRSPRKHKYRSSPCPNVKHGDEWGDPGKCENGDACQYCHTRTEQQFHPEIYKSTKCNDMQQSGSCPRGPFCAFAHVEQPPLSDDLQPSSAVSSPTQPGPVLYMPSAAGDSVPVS

First: B1
Second: B2
The binding signal of the first is lower: 0.776 enrichment R for the first, 3.46 enrichment R for the second.

First: B3
Second: B4
The binding signal of the first is lower: 1.61 enrichment R for the first, 7.26 enrichment R for the second.

Compared with B5, B6 is lower in binding signal: 1.63 enrichment R for the first, 1.48 enrichment R for the second.

First: B7
Second: B8
The binding signal of the first is lower: 2.67 enrichment R for the first, 14.7 enrichment R for the second.

First: B9
Second: B10
The binding signal of the first is higher: 1.03 enrichment R for the first, 0.575 enrichment R for the second.

Going from B11 to B12, the binding signal falls from 0.678 enrichment R to 0.336 enrichment R.

Going from B13 to B14, the binding signal rises from 0.853 enrichment R to 4.22 enrichment R.

Compared with B15, B16 is higher in binding signal: 0.289 enrichment R for the first, 1.58 enrichment R for the second.

Compared with B17, B18 is lower in binding signal: 15.9 enrichment R for the first, 0.797 enrichment R for the second.

First: B19
Second: B20
The binding signal of the first is lower: 3.47 enrichment R for the first, 16.2 enrichment R for the second.

Going from B21 to B22, the binding signal rises from 0.968 enrichment R to 22 enrichment R.
